Laboratory results from PMC10668032.
The other results are listed elsewhere or left out. At the low end of the ranking the order means little.

biological target: SIX1 homeodomain (reference allele) (UniProt Q15475); assay: universal protein binding microarray; conditions: Universal all-10-mer PBM (8x60K, AMADID 030236), 300 nM GST-tagged protein, Alexa Fluor 488 anti-GST; buffer, salt, pH and temperature not stated; high values mean tight binding; most listed sequences are background and not binding sites; double strand, one strand shown

Sequence	binding signal [E-score]
AAGTTTCA	-0.134
CTGGGAAC	-0.108
ACACTGCG	-0.0582
AGGCCCCT	-0.0255
ATACGTTG	0.19
AATCATGT	0.0103
AGCTATAC	0.235
CGACCCTA	0.124
ACACCTGC	0.318
CCCAGCAG	-0.152
ATCTAACG	-0.0311
AAACGCTG	-0.402
ATACATCA	0.196
GGTCATAA	-0.0462
GCGTGACC	-0.0448
AACTCAAG	-0.277
ACCAGCAT	0.00743
CATCAGGA	-0.0282
CAGGAACG	-0.223
ATATCCAT	0.389
CTTATAGA	-0.0243
CACGGCTC	0.0483

Sequence	binding signal [E-score]
GGGTCGAC	-0.000235
CTAATCCA	0.116
ATTAGATA	0.314
TCCCCAGA	0.0998
AACTCTGT	-0.182
CTGCATCC	-0.0343
CGCTGTGA	0.0124
CACGGGAA	-0.0687
ACTAGGCG	0.0414
CAACCAGC	-0.113
ATGACAAT	0.0306
ACTTTTGC	-0.112
CTGGTGGA	-0.102
CACCAAAA	0.00779
GGTCACGA	-0.146
AACTAGAC	0.0815
CTGTTAAC	-0.00288
AGAGGCCT	-0.212
ACGAGCAC	-0.0772
AACACCGC	0.293
AATCACGG	-0.145
AATTCAGC	-0.065

Sequence	binding signal [E-score]
AAGCTCCG	-0.203
CTAGGGAA	-0.106
AAAACTCG	-0.063
AATACCGA	0.321
GAGATATC	0.442
AGGTGCTC	-0.289
GTTAGTTA	-0.182
CATAGAAG	-0.0626
AAAGACCG	-0.123
AACAAGTT	-0.153
ACTTCCCT	-0.134
CAATGATG	-0.155
CTACCCTA	-0.0466
AGGGGGAT	0.376
GAGGCCAC	-0.172
GAAGCTTC	-0.178
TGCTACAA	0.0649
AGCGTGAC	-0.145
CGTACACG	0.0605
CCAGGGAG	-0.0191
CTTAAATA	-0.102
AGGACGTA	-0.124

Sequence	binding signal [E-score]
ACATTCTA	-0.223
CGTCCTCC	-0.139
CGACATTC	-0.124
CGTGTCGA	-0.0256
GCGACAAA	-0.0995
GTCAAGAA	-0.0764
TCAAATAA	0.0171
GGGATGGA	0.15
GTTCATCA	-0.17
ACAGTTGG	-0.202
AATATATA	0.261
AAGGCCTC	-0.194
TGAGAGAA	-0.157
CCAGTGAC	-0.00037
CGTCGGGC	-0.145
TAAGGGGA	0.0412
GCTTGCTA	-0.194
ACCACTCA	0.0361
CAAGGAAG	-0.0241
CGCGAGAA	0.0298
CTTGCCAA	-0.125
AAGGTGCC	-0.234

Sequence	binding signal [E-score]
CCGTTTGA	0.0947
ATTAAACG	0.0909
ACAGCCAG	-0.164
GACGAGAC	0.0789
AGAGTCGG	-0.0854
GCATGCGC	0.0103
CTTCGCAC	-0.276
CGTATATC	0.336
ATGGCCGG	0.124
CACGTCCC	-0.148
ACTGATAC	0.465
ACGCGCCG	0.026
CACATACG	-0.128
AGCCGAAG	-0.00144
CAAGAATG	-0.185
CCCTAAAC	-0.176
CAACGCAA	-0.39
ACTTAGGA	-0.0746
ATAGACCA	0.0192
AGAGTCGC	-0.203
ATCCCGTC	0.267
